The record followed here is PubChem BioAssay AID1159614 (National Center for Advancing Translational Sciences (NCATS), 2016).

Out of some 45,000 compounds screened, about 65 (0.1%) were called active. Calls come from the whole dose curve; as a rule, active = well fitted activation curve with a large enough effect; inconclusive = small, poorly fitted or top-dose-only effect; inactive = no such curve, though single readings can be large or run the other way. Some of the results follow.

Sequence of UniProt P54803 (P54803 whole entry, looked up): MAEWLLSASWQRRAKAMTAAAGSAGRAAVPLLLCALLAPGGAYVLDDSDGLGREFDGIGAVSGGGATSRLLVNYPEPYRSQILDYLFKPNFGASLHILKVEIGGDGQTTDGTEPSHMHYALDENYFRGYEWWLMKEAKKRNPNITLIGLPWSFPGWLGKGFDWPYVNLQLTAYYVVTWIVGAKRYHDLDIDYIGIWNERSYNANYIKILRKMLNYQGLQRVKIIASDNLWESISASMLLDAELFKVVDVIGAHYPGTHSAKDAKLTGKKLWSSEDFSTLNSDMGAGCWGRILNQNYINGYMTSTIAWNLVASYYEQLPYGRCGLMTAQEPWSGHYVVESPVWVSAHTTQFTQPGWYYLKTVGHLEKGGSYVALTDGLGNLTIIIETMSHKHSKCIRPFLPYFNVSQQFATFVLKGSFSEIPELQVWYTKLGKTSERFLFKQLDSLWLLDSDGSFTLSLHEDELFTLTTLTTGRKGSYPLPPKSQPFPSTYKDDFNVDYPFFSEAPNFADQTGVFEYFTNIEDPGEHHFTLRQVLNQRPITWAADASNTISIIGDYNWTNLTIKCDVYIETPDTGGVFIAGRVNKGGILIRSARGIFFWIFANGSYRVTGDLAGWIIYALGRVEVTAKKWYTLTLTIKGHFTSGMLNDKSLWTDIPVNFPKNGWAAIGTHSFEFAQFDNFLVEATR

This assay deals with Galactocerebrosidase (Homo sapiens) (UniProt P54803). The assay is described as follows: A Novel Cell-Based Assay to Identify Small Molecules for B -Galactocerebrosidase. Note: 0% is about no effect; nearly all actives have a fitted effect of over 65% in size. The note with it: 145M-Twi-hGALC-G270D cells (Twitcher mouse brain line with human GALC G270D), HMU-beta-Gal fluorescence, 48 h; series mostly up to 57.5 µM; activation: at the top concentration. Put shortly:
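Brain-derived Twitcher mouse 145M-Twi cells stably expressing human GALC-G270D or wild-type GALC, treated live, then residual GALC activity read by fluorescence of HMU-b-Gal substrate (0.1 mM final) in citrate-phosphate buffer pH 5.2 with sodium taurocholate. Signal increase indicates enhancement.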
With `Cc1ccc(-n2ncc3c(NCCCN(C)C)ncnc32)cc1Cl`, the “activation” value is inactive: -15.9%.
Next, `COc1ccc(C(CNC(=O)c2oc3cc(Br)ccc3c2C)N2CCCCC2)cc1` (stereo unspecified): inactive: -10.3%; `O=[N+]([O-])c1ccc(S(=O)(=O)N2CCn3cccc3C2c2ccc(Br)cc2)cc1` (stereo unspecified): inactive: 0.437%.
Take `Cc1cc(=O)n(CC(=O)Nc2ccc(Cl)c(Cl)c2)c(-n2nc(C)cc2C)n1`: the “activation” value is inactive: -32.7%.
As for `CCOc1ccc(CNC(=O)C2CCCN(c3nn4cc(-c5ccc(OC)cc5)nc4s3)C2)cc1` (stereo unspecified), the “activation” value was inactive: -28.5%.
The result for `Cc1cccc(NC(=O)CCCn2nc(C)c3c(C)n(-c4ccccc4)nc3c2=O)c1C` reads inactive: -16.8%; that for `COc1ccc(NC(=O)CC2C(=O)N(c3ccccc3)C(=O)N2CCc2sccc2C)cc1` (stereo unspecified), inactive: -12.3%; that for `CCOC(=O)CN1C(=O)N(c2ccc(C)c(C)c2)S(=O)(=O)c2ccccc21`, inactive: -10.2%.
Next, `Cc1ccc(CN2CCC(CNC(=O)c3cnn(-c4ccc(C)cc4)c3C3CCN(C(=O)OC(C)(C)C)CC3)CC2)cc1`: inactive: 14.1%.
Next, `Cc1ccc(S(=O)(=O)N(CC(=O)Nc2cccnc2)c2cc(Cl)ccc2C)cc1`: inactive: -2.81%; `Oc1ccc(OCc2ccccc2)cc1`: inactive: -15.2%.
In the case of `Cc1ccc(C(=O)CSc2nc3cc(C(=O)NC4CCCC4)ccc3c(=O)n2CC2CCCO2)c(C)c1` (stereo unspecified), the “activation” value was inactive: -9.66%.
The result for `CC(C)CCNc1nc2c(-c3ccccc3)nnn2c2ccccc12` reads inactive: -18%.
Next, `COC(=O)c1ccccc1NC(=O)CSc1n[nH]c(CC(C)C)n1`: inactive: -13.4%.
The result for `Cc1nn(-c2ccccc2)c2nc(C3CC3)cc(C(=O)Nc3cccc(F)c3)c12` reads inactive: -11.4%.
For `CCOc1ccc(CNC(=O)c2ccc(CSc3nc4ccncc4n3Cc3ccc(F)cc3)cc2)cc1`, the “activation” value is inactive: -8.14%.
The result for `COc1cccc(NC(=O)c2oc3ccccc3c2NC(=O)c2ccccc2C)c1` reads inactive: -19.3%; that for `O=C(CC1N=C2c3ccccc3N=C(SCc3cccc(F)c3)N2C1=O)NCc1cccs1` (stereo unspecified), inactive: -13.7%; that for `COc1cccc(-c2cc(C(=O)Nc3cnn(Cc4ccc(Cl)cc4Cl)c3)no2)c1`, inactive: -8.78%.
Next, `COc1ccc2c(c1)c1c(c(=O)n(-c3cc(Cl)ccc3C)c(=O)n1CC(=O)N1CCCC1)n2C`: inactive: -4.14%; `Cc1nn2c(=O)cc(COc3ccc(/C=C(\C#N)C(=O)Nc4ccccc4C)cc3)nc2s1`: inactive: -12.3%.
For `COc1ccc(-c2nnn3c2nc(NCCc2ccc(OC)c(OC)c2)c2ccccc23)cc1`, the “activation” value was inactive: -12.9%.
With `COc1ccc(OC)c(Nc2nc3ccccc3nc2-n2nc(C)cc2C)c1`, the “activation” value is inactive: -2.81%.
Next, `CCCCN(CCCC)CCCNC(=O)c1ccc2nc(N3CCCCC3)sc2c1`: inactive: -9.04%.
Next, `Cc1ccc(CNC(=O)CCNS(=O)(=O)c2ccc3c(c2)CCCC(=O)N3)cc1`: inactive: -25.5%; `COc1ccc(Cn2ccc3nc(C)c(C(=O)N4CCN(c5ccc(F)cc5)CC4)cc3c2=O)cc1`: inactive: -15.5%.
